The IC50 comes from the fitted curve, where viability falls to half of the control; a limit (>, <) means that the fit lies beyond the doses tested. For AUC the same curve is integrated over the 256-fold range of doses and scaled to a fraction; it is 1 without any effect and falls as sensitivity rises. For part of these data: The top dose, if marked as inferred, was derived from the fitted curves, not read from the paper. For part of these data: Drugs with an entry number were screened twice under separate entries, and the two screens often disagree.
Assays:
Assay in all cases: Viability of human cancer cell lines after 72 h of drug (GDSC screen)
NSC-207895 = compound: CN1CCN(c2ccc([N+](=O)[O-])c3no[n+]([O-])c23)CC1 [NSC-207895]; settings: top dose 20 µM; top dose inferred
Method: (§1)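 Human cancer cell lines in 384-well plates, medium with 10% serum, drug for 72 h over a 256-fold dose range (nine 2-fold or five 4-fold steps up to the top dose). Adherent lines were fixed and stained with the nucleic acid dye Syto60, suspension lines read with resazurin; signal relative to control wells, capped at 0 and 100%. One two-parameter sigmoid per drug and line, fitted in a mixed model over all curves with the slope shared within a line.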

JNJ-26854165 = compound: c1ccc2c(CCNc3ccc(Nc4ccncc4)cc3)c[nH]c2c1 [JNJ-26854165]; settings: top dose 10 µM
Method: as §1

JQ1 = compound: Cc1sc2c(c1C)C(c1ccc(Cl)cc1)=N[C@@H](CC(=O)OC(C)(C)C)c1nnc(C)n1-2 [JQ1]
Method: as §1

YM155 = compound: COCC[n+]1c2c(n(Cc3cnccn3)c1C)C(=O)c1ccccc1C2=O [YM155]; settings: top dose 5.12 µM
Method: as §1

JNK Inhibitor VIII = compound: CCOc1nc(NC(=O)Cc2cc(OC)ccc2OC)cc(N)c1C#N [JNK Inhibitor VIII]; settings: top dose 10 µM; top dose inferred
Method: as §1

SB-715992 = compound: Cc1ccc(C(=O)N(CCCN)[C@@H](c2nc3cc(Cl)ccc3c(=O)n2Cc2ccccc2)C(C)C)cc1 [SB-715992]; settings: top dose 0.128 µM; top dose inferred
Method: as §1

AMG-706 = compound: CC1(C)CNc2cc(NC(=O)c3cccnc3NCc3ccncc3)ccc21 [AMG-706]; settings: top dose 2 µM; top dose inferred
Method: as §1

FTI-277 = compound: COC(=O)[C@H](CCSC)NC(=O)c1ccc(NC[C@@H](N)CS)cc1-c1ccccc1 [FTI-277]; settings: top dose 1.024 µM; top dose inferred
Method: as §1

OSI-906 = compound: C[C@]1(O)C[C@@H](c2nc(-c3ccc4ccc(-c5ccccc5)nc4c3)c3c(N)nccn32)C1 [OSI-906]; settings: top dose 2.56 µM; top dose inferred
Method: as §1

Belinostat = compound: O=C(/C=C/c1cccc(S(=O)(=O)Nc2ccccc2)c1)NO [Belinostat]; settings: top dose 20 µM; top dose inferred
Method: as §1

[1] = top dose 1 µM, screen: GDSC drug entry 1218, top dose inferred
[2] = top dose 2.56 µM, screen: GDSC drug entry 163

Cell Line	AUC (NSC-207895)	IC50 (NSC-207895) [nM]	AUC (JNJ-26854165)	IC50 (JNJ-26854165) [nM]	AUC (JQ1; [1])	IC50 (JQ1; [1]) [nM]	AUC (JQ1; [2])	IC50 (JQ1; [2]) [nM]	AUC (YM155)	IC50 (YM155) [nM]	AUC (JNK Inhibitor VIII)	IC50 (JNK Inhibitor VIII) [nM]	AUC (SB-715992)	IC50 (SB-715992) [nM]	AUC (AMG-706)	IC50 (AMG-706) [nM]	AUC (FTI-277)	IC50 (FTI-277) [nM]	AUC (OSI-906)	IC50 (OSI-906) [nM]	AUC (Belinostat)	IC50 (Belinostat) [nM]
H3255 (lung adenocarcinoma, adherent)	0.982	> 20000	0.9	> 10000	0.963	> 1000	0.871	> 2560	0.289	71.5	0.954	> 10000	0.923	> 128	0.957	> 2000	0.984	> 1020	0.955	> 2560	0.676	4280
CHL-1 (melanoma, adherent)	0.837	12300	0.909	> 10000	0.983	> 1000	0.477	139	0.024	< 20	0.946	> 10000	0.878	117	0.984	> 2000	0.978	> 1020	0.981	> 2560	0.214	192
MDA-MB-157 (breast, adherent)	0.988	> 20000	0.898	> 10000	0.983	> 1000	0.803	1310	0.325	103	0.988	> 10000	0.981	> 128	0.947	> 2000	0.981	> 1020	0.983	> 2560	0.548	1690
NCI-H1437 (lung adenocarcinoma, adherent)	0.955	> 20000	0.863	9200	0.985	> 1000	0.585	276	0.055	< 20	0.974	> 10000	0.738	39.7	0.97	> 2000	0.897	> 1020	0.908	> 2560	0.567	1920
HCC-15 (lung squamous cell carcinoma, adherent)	0.961	> 20000	0.921	> 10000	0.978	> 1000	0.844	> 2560	0.125	< 20	0.979	> 10000	0.912	> 128	0.982	> 2000	0.958	> 1020	0.972	> 2560	0.797	12700
NCI-H1651 (lung adenocarcinoma, adherent)	0.975	> 20000	0.768	4020	0.983	> 1000	0.868	> 2560	0.042	< 20	0.98	> 10000	0.984	> 128	0.969	> 2000	0.977	> 1020	0.886	> 2560	0.508	1320
Hs683 (glioma, adherent)	0.983	> 20000	0.845	7340	0.987	> 1000	0.712	639	0.822	3040	0.956	> 10000	0.661	22.5	0.979	> 2000	0.98	> 1020	0.988	> 2560	0.852	15800
HCC1806 (breast, adherent)	0.959	> 20000	0.829	5540	0.988	> 1000	0.898	> 2560	0.046	< 20	0.974	> 10000	0.733	34.6	0.976	> 2000	0.983	> 1020	0.961	> 2560	0.465	1010
A427 (non-small cell lung carcinoma, adherent)	0.871	19100	0.856	8200	0.985	> 1000	0.751	849	0.106	< 20	0.981	> 10000	0.94	> 128	0.979	> 2000	0.983	> 1020	0.888	> 2560	0.758	7020
KYSE-510 (oesophagus, adherent)	0.989	> 20000	0.812	4280	0.99	> 1000	0.654	395	0.271	82	0.978	> 10000	0.953	> 128	0.983	> 2000	0.992	> 1020	0.991	> 2560	0.514	1360
SU-DHL-5 (B-cell lymphoma, suspension)	0.385	655	0.834	4380	0.799	350	0.614	303	0.01	< 20	0.994	> 10000	0.537	9.83	0.994	> 2000	0.994	> 1020	0.991	> 2560	0.033	< 78.1
NUGC-3 (stomach, adherent)	0.906	> 20000	0.788	4970	0.928	> 1000	0.874	> 2560	0.033	< 20	0.962	> 10000	0.956	> 128	0.955	> 2000	0.954	> 1020	0.984	> 2560	0.596	2360
SBC-3 (small cell lung carcinoma, adherent)	0.771	6970	0.902	> 10000	0.988	> 1000	0.469	133	0.021	< 20	0.989	> 10000	0.669	22.5	0.986	> 2000	0.969	> 1020	0.845	1600	0.163	134
TCCSUP (bladder, adherent)	0.891	> 20000	0.805	5940	0.978	> 1000	0.571	257	0.048	< 20	0.984	> 10000	0.984	> 128	0.965	> 2000	0.875	> 1020	0.888	> 2560	0.499	1240
786-0 (kidney, adherent)	0.842	12400	0.679	1880	0.987	> 1000	0.432	106	0.021	< 20	0.978	> 10000	0.592	14	0.975	> 2000	0.988	> 1020	0.945	> 2560	0.399	677
NCI-H2023 (lung adenocarcinoma, adherent)	0.982	> 20000	0.839	9430	0.98	> 1000	0.75	1020	0.21	34.9	0.911	> 10000	0.98	> 128	0.966	> 2000	0.983	> 1020	0.941	> 2560	0.699	5250
PANC-03-27 (pancreas, adherent)	0.976	> 20000	0.847	6640	0.925	> 1000	0.94	> 2560	0.029	< 20	0.93	> 10000	0.834	75.6	0.988	> 2000	0.984	> 1020	0.929	> 2560	0.537	1560
PANC-10-05 (pancreas, adherent)	0.962	> 20000	0.918	> 10000	0.961	> 1000	0.715	781	0.055	< 20	0.976	> 10000	0.781	69.4	0.969	> 2000	0.978	> 1020	0.788	1490	0.364	470
H2591 (mesothelioma, adherent)	0.934	> 20000	0.91	> 10000	0.98	> 1000	0.787	1490	0.576	548	0.976	> 10000	0.979	> 128	0.953	> 2000	0.934	> 1020	0.975	> 2560	0.698	5390
AGS (stomach, adherent)	0.836	11400	0.8	4280			0.718	613	0.046	< 20	0.99	> 10000	0.904	> 128	0.99	> 2000	0.97	> 1020	0.988	> 2560	0.395	666
HOS (osteosarcoma, adherent)	0.992	> 20000	0.833	5040	0.992	> 1000	0.759	764	0.941	> 5120	0.975	> 10000	0.992	> 128	0.986	> 2000	0.98	> 1020	0.992	> 2560	0.992	> 20000
OVMIU (ovary, adherent)	0.76	8680	0.811	7010			0.614	357	0.039	< 20	0.879	> 10000	0.927	> 128	0.938	> 2000	0.976	> 1020	0.915	> 2560	0.395	598

From the supplement of paper PMC4967469
